Laboratory results: patent US11542275B2, “Substituted imidazolidin-2-one derivatives as PRMT5 inhibitors” (Aurigene Discovery Technologies Limited, priority 2018, dated 2023)

Biological target: PRMT5/MEP50 Complex (Homo sapiens (Human), UniProt O14744)
Assay: PRMT5 inhibition based on TR-FRET assay
Type: biochemical
Details: 32 nM PRMT5:MEP50 complex, 50 nM Histone-H4 peptide, 1 μM SAM, 90 minutes at room temperature
Excerpt: Protein arginine methyltransferase 5 (PRMT5) is a type II arginine methyltransferase that catalyze mono- and symmetric demethylation on arginine residues of histone or non-histone proteins in presence of S-adenosylmethionine (AdoMet or SAM) a cofactor responsible for donating the methyl group. PRMT5 is reported to be overexpressed in several human cancers. To identify compounds that inhibit the PRMT5 and decrease its activity, a TR-FRET based assay has been established. Time-resolved fluorescence resonance energy transfer (TR-FRET) HTS assays are homogeneous proximity assays where the interaction of two dye-labeled binding partners is detected by the energy transfer between a donor and an acceptor dye, and the subsequent light emission by the acceptor dye. PRMT5 catalyzes Histone H4 peptide which is biotin tagged to the Lysine amino acid at carboxyl end, in presence of S-adenosyl-1-methionine (SAM) to methylate the peptide. The antibody specific to mono methylated H4 peptide (H4R3) with Ig conjugate binds to the methylated peptide, indirectly binding to the Europium lanthanide. SureLight Allophycocyanin-Streptavidin binds to the biotin tag of the peptide, therefore accepting the energy transferred from the Europium lanthanide. This energy transfer between Europium to SureLight Allophycocyanin is a direct measure of the activity/inhibition of the PRMT5 enzyme.
Assay buffer: 20 mM BICINE (pH 7.6), 25 mM NaCl, 2 mM DTT, 0.01% Tween-20 and 0.01% BSA.
The compound dilutions were prepared as 7.5% DMSO stock solutions in assay buffer. To 2 μL (7.5×) of test compound, 5 μL of PRMT5 enzyme prepared in assay buffer (Final concentration of 32 nM in 15 μL reaction volume) was added and allowed for 30 minutes pre-incubation time in a white polystyrene 384-well plate at room temperature. […] The plates were then read on Victor-3 with Excitation at 340 nm and Emissions collected at 615 and 665 nm in TR-FRET protocol. […]

| SMILES | IC50 [µM] |
| --- | --- |
| COc1ccc(-c2ccc(CN3CCN(C[C@H](O)CN4CCc5ccccc5C4)C3=O)nc2)cn1 [Compound 62, (R)-1-(3-(3,4-dihydroisoquinolin-2(1H)-yl)-2-hydroxypropyl)-3-((6′-methoxy-[3,3′-bipyridin]-6-yl)methyl)imidazolidin-2-one] | 0.044 |
| O=C1N(Cc2ccc(-c3ccnc(O)c3)cn2)CCN1C[C@H](O)CN1CCc2ccccc2C1 [Compound 56, (R)-1-(3-(3,4-dihydroisoquinolin-2(1H)-yl)-2-hydroxypropyl)-3-((2′-hydroxy-[3,4′-bipyridin]-6-yl)methyl)imidazolidin-2-one] | 0.018 |
| COc1cc(-c2ccc(CN3CCN(C[C@H](O)CN4CCc5ccccc5C4)C3=O)cn2)ccn1 [Compound 58, (R)-1-(3-(3,4-dihydroisoquinolin-2(1H)-yl)-2-hydroxypropyl)-3-((2′-methoxy-[2,4′-bipyridin]-5-yl)methyl)imidazolidin-2-one] | 0.02 |
